Data on 4 molecules can be found in patent EP4748857A1 (Seoul National University R&DB Foundation, dated 2026).

Experiment [1] has as its target T1, human CD40L expressed on cells (Jurkat D1.1 (hCD40L+) cell line); CD154L cells / L cell line overexpressing … (human, UniProt P29965 1-261).
T1 construct: whole, on cells; also called CD154L (hCD40L+) cell line; L cell line overexpressing hCD40L
T1 sequence (looked up): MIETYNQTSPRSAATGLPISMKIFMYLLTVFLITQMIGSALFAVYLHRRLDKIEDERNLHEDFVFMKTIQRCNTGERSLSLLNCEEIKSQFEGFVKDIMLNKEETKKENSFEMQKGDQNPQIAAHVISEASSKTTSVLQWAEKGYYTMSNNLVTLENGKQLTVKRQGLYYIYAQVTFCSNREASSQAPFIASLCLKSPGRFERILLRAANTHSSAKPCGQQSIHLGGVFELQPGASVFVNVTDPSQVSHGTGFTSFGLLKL
The experiment in a line: flow cytometry (FIG. 22). (A flow cytometer gives signals particle by particle.)

For experiment [2], the target named is T2, human CD28 expressed on cells (Jurkat E6.1 (Human CD28+) cell line; human CD4 T cells) (human, UniProt P10747 19-220).
T2 construct: whole, on cells; also called cell surface CD28; hCD28+
The experiment in a line: flow cytometry, Jurkat E6.1 cells, anti-hCk-APC detection.

Experiment [3] deals with T3, recombinant human CD28 protein (R&D systems) in a form conjugated to human Fc region (human, UniProt P10747 19-152).
T3 construct: also called recombinant CD28 protein; not shown: human Fc region
The experiment in a line: ELISA, plate coated with recombinant CD28-Fc, anti-hCk-HRP detection. In general terms: In an ELISA, binding on a coated surface is turned into a signal by an enzyme label.

B1: TIG clone (humanized 3E-3, anti-CD40L) (bispecific antibody)
scFv: ELTQDPAVSVALGQTVRITCSGGYSSYGIYYYGWYQQKPGQAPVTVIYNGNKRPSGIPDRFSGSSSGNTASLTITGAQAEDEADYYCGSGDSSSDSGIFGGGTKLTVLGQSSRSSGGGGSSGGGGSEVQLVESGGGLVQPGGSLRLICAASGFTFSSYGMNWVRQAPGKGLEWVGAISNDGSSTSYAP[about 20 residues left out]MNSLRAEDTAVYYCAKESTNGGWVADDIDAWGQGTLVTVSS
notes: not shown: [CUT]
For B1, the binding result in experiment [1] is “binds”.

B2: TIS clone (humanized 3E-3, anti-CD40L) (bispecific antibody)
scFv: ELTQDPAVSVALGQTVRITCSGGYSSYGIYYYGWYQQKPGQAPVTVIYNGNKRPSGIPDRFSGSSSGNTASLTITGAQAEDEADYYCGSGDSSSDSGIFGGGTKLTVLGQSSRSSGGGGSSGGGGSEVQLVESGGGLVQPGGSLRLICAASGFTFSSYGMNWVRQAPGKGLEWVSAISNDGSSTSYAP[about 20 residues left out]MNSLRAEDTAVYYCAKESTNGGWVADDIDAWGQGTLVTVSS
notes: not shown: [CUT]
In the case of B2, in experiment [1], the binding result is “binds”.

B3: TSS clone (humanized 3E-3, anti-CD40L) (bispecific antibody)
scFv: ELTQDPAVSVALGQTVRITCSGGYSSYGIYYYGWYQQKPGQAPVTVIYNGNKRPSGIPDRFSGSSSGNTASLTITGAQAEDEADYYCGSGDSSSDSGIFGGGTKLTVLGQSSRSSGGGGSSGGGGSEVQLVESGGGLVQPGGSLRLSCAASGFTFSSYGMNWVRQAPGKGLEWVSAISNDGSSTSYAP[about 20 residues left out]MNSLRAEDTAVYYCAKESTNGGWVADDIDAWGQGTLVTVSS
notes: not shown: [CUT]
Turning to B3, in experiment [1], the binding result is recorded as “binds”.

B4: TSGx2-G12, anti-CD40L/anti-CD28 bispecific antibody [N'-(TSG scFv) - linker-Ck-linker - (2-G12 scFv)-C'] (bispecific antibody)
chain: ELTQDPAVSVALGQTVRITCSGGYSSYGIYYYGWYQQKPGQAPVTVIYNGNKRPSGIPDRFSGSSSGNTASLTITGAQAEDEADYYCGSGDSSSDSGIFGGGTKLTVLGQSSRSSGGGGSSGGGGSEVQLVESGGGLVQPGGSLRLSCAASGFTFSSYGMNWVRQAPGKGLEWVGAISNDGSSTSYAP[about 20 residues left out]MNSLRAEDTAVYYCAKESTNGGWVADDIDAWGQGTLVTVSSGQAGQGGGGSGGGGSGGGGSKLRTVAAPSVFIFPPSDEQLKSGTASVVCLLNNFYPREAKVQWKVDNALQSGNSQESVTEQDSKDSTYSLSSTLTLSKADYEKHKVYACEVTHQGLSLPVTKSFNRGESLEGGGGSGGGGSGGGGSTGLTQPSSVSANPGETVKITCSGGGSNNYGWYQQKPGSAPVTVIYYNDKRPSGIPSRFSGSTSGSTGTLTITGVRAEDEAVYFCGSRDSSHDGIFGGGTKLTVLGQSSRSSGGGGSSGGGGSPVKLVESGGGLVTPGGSLRLSCSASGFTFSSYAMHWVRQAPGKGLEYVGQISSNDGSWTGYGAAVKGRFTISRDNSKSTLYLQMNSLRAEDTAVYYCAKAAGGYNVCGYGCGGDYIDAWGHGTQVTVSSTS
notes: also called anti-CD40L-Ck-CD28 bispecific antibody; aCD40L-aCD28
As to B4, the binding result in experiment [2] and in experiment [3] was “binds” in each case.
